# In the supplement of paper PMC3334620:
# Whole data set: some 33,000 sequences, median “E-score (-0.5 to 0.5)” near -0.041, cut for the highest 2% near 0.37. The list shows a part of the results.
# Target: T1, Ecm22 (UniProt Q05958)
# T1 sequence: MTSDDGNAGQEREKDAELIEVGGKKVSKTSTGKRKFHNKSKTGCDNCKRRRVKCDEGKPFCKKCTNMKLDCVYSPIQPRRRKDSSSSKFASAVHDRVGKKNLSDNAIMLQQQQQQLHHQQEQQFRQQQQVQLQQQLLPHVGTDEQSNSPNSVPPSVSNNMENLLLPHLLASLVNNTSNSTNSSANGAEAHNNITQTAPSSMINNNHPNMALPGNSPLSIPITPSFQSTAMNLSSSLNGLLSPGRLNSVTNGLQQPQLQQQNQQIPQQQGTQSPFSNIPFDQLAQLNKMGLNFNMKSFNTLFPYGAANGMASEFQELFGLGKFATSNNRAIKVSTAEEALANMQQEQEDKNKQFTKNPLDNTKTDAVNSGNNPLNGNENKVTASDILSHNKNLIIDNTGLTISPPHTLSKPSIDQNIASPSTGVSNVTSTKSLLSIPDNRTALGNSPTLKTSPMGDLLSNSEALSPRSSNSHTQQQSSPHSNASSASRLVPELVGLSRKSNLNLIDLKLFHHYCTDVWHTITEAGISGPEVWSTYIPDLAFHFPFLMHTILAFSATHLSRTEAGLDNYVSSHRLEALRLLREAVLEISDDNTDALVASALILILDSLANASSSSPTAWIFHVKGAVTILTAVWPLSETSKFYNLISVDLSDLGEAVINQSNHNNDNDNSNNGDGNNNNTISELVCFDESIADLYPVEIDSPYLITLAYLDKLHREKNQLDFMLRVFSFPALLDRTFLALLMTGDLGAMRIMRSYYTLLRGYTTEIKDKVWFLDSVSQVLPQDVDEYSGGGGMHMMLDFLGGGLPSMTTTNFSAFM
# Assay: PBM E-score (8-mer binding enrichment) (E-score (-0.5 to 0.5)); higher = stronger / more preferred TF binding; most listed sequences are background and not binding sites
# Details: protein concentration: 200 nM; construct: GST-full length
# Protocol: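 Universal 'all 10-mer' protein binding microarrays (Agilent AMADID 015681) probed with GST-tagged S. cerevisiae TFs (full-length or DBD) made by in vitro transcription/translation (PURExpress), about 100-200 nM. Bound TF was detected with fluorescent anti-GST. Each ungapped 8-mer (which stands for itself and its reverse complement) is scored by the PBM enrichment score (E-score), a modified Wilcoxon-Mann-Whitney statistic from -0.5 to +0.5, computed with the Universal PBM Analysis Suite. Scale: above 0.35 generally sequence-specific binding.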
row,Sequence,PBM E-score
1,GTTGCCGA,0.227
2,TAACTTGA,-0.0895
3,CGTCTTCC,-0.227
4,GCCATCAA,-0.107
5,CCTACGCA,-0.0721
6,AGCCTACT,-0.228
7,CTCCATTA,-0.276
8,AGGCAGCA,-0.2
9,CGTGCCAG,-0.206
10,AAGGTGAT,-0.117
11,CCGACGAC,0.167
12,AATATAAT,-0.00206
13,CCTTAGAC,-0.122
14,ACCACAAA,0.0136
15,AAGGACGA,-0.00354
16,CAATCTCG,0.137
17,GACGTATC,0.0755
18,CGACGCCG,0.167
19,AAAAGAGG,0.0679
20,GAATTCGC,0.141
21,ATGCTCCA,-0.286
22,GCTTTGAC,-0.00291
23,AGGTATAC,0.26
24,ACCGGGCC,-0.107
25,ACCGACAC,0.236

row,Sequence,PBM E-score
1,TAGTAGGA,-0.193
2,ACTAACAA,-0.00572
3,TCCAACAA,-0.0854
4,CCCTACCC,-0.132
5,GACGTGCA,0.0366
6,AGATGACT,-0.143
7,AGGCCTCG,0.189
8,AATATTCG,0.228
9,GCAAACGC,0.0881
10,CTACGGGC,-0.0464
11,TCAAGTGA,-0.116
12,TCTCAGAA,-0.265
13,TGGGAAAA,-0.151
14,CAATGCGC,-0.019
15,AATATTGA,0.122
16,AAGCATTA,-0.0316
17,AGAACCTC,-0.146
18,TAATTGTA,0.0941
19,CTGGGGAA,-0.174
20,ATCATCAC,-0.118
21,CCGTAGCG,0.275
22,ACTTCGCA,0.18
23,ACACCGTA,0.313
24,CCTCATCC,-0.272
25,CAGGTAGC,-0.239

row,Sequence,PBM E-score
1,AATCAATT,-0.112
2,ATACGTCC,0.111
3,AGCTAGCG,0.045
4,AGGCACTA,0.00445
5,AGGATACC,-0.101
6,AGTTTAGA,-0.186
7,AAACACGT,0.034
8,ACAGATCC,0.0962
9,ACAAGTCG,0.065
10,CCTATAAG,-0.0614
11,AGGTGGAA,-0.0633
12,ATTGGCTA,0.0991
13,GTAACGTA,0.228
14,CTTTATCC,0.0548
15,ACCGAAGA,0.0871
16,CAAGCAAC,0.00354
17,CTCGGCAA,0.106
18,AATTCTAG,0.119
19,GTGACCAA,-0.0804
20,CTCTGGCC,-0.119
21,ATGATACG,0.377
22,GACGGGAA,0.133
23,GAAGTCCC,-0.172
24,AGAGTTGA,0.0512
25,CATTTCTA,0.0498

row,Sequence,PBM E-score
1,AGATTTCG,0.301
2,ACCGGCCG,0.0212
3,TGTACCAA,0.036
4,GAACCCAC,0.118
5,CCGCACAG,0.0576
6,ATTCATAA,0.0712
7,CGGCAAGC,-0.0285
8,CCCTGGCG,-0.0685
9,AGGCAATG,-0.113
10,CTCGTGCC,0.18
11,CTGCTGGA,-0.3
12,CCATGACA,-0.256
13,ACCTATTA,-0.181
14,ATAAACTC,0.00565
15,CAGTATCG,0.049
16,ACAAGCCA,-0.0197
17,AGAGTACT,-0.0868
18,CGACATTC,0.19
19,CAACTTGG,0.114
20,AGGGTGAG,-0.218
21,CTATATCC,-0.0511
22,GACCTTAA,-0.117
23,AGGGTGAC,-0.133
24,ATATCCTC,-0.125
25,AACTATCT,0.126

row,Sequence,PBM E-score
1,AACTGAAT,-0.0633
2,GCCTCCCC,-0.134
3,CTCGTCGA,0.0444
4,GCAGACGC,-0.093
5,AAGGGGTC,-0.155
6,GAGGTACA,-0.0135
7,CTATTCGC,0.0806
8,GTAATCAA,0.0204
9,AGTCCTGC,-0.111
10,CTGAGCAC,-0.132
11,CCCCCTGC,-0.162
12,TAAGAATA,0.104
13,ATGCGTCG,0.137
14,AGAATAAA,-0.0136
15,ACAGAGTG,-0.0233
16,AGGGACAT,0.0208
17,GACGGCTA,-0.0544
18,GTGCCTAA,-0.253
19,AATGATAT,0.097
20,GCAATAGC,-0.107
21,CTTCTTCA,-0.341
22,GGTCGACC,0.0863
23,ATCAGTAA,0.135
24,CGCAATGA,0.0533
25,CATGCCCG,0.0521

row,Sequence,PBM E-score
1,GCAAAATA,0.096
2,AACGGCCC,0.198
3,CCGTGGTA,-0.0622
4,CCAGAAAA,-0.131
5,CTAATGAC,-0.167
6,CATCATAA,-0.0898
7,CCGATAGA,-0.134
8,CCTTTAGA,-0.149
9,CAACAACG,0.209
10,CAGTAAAA,0.163
11,ATCGTGAA,0.0307
12,ACGGTATC,0.159
13,GAATTAGC,-0.121
14,AACACACA,-0.0144
15,TGCGCAAA,-0.077
16,AAAGTAAT,0.0494
17,AGAAGTAC,-0.0898
18,GAGATCAC,-0.024
19,TCACAGCA,-0.00995
20,GTCGTGAA,0.0408
21,TGCCAGCA,-0.279
22,GCGGTACC,0.00785
23,CTTGTTCA,-0.0939
24,ATAACGAA,0.185
25,ACAGTGGG,-0.138

row,Sequence,PBM E-score
1,AAAGTATA,-0.0184
2,CCGTACGG,0.378
3,CAGACCAA,-0.107
4,ACCTCCGC,-0.231
5,CAAGGTTA,-0.0596
6,AATAATTG,-0.0327
7,CAAGCACA,-0.256
8,AGCGACCG,0.277
9,AACGGCGG,0.224
10,CAACAGGG,-0.207
11,AGGCAGCG,-0.244
12,ATCAGAAG,-0.0721
13,CACCTCAC,-0.212
14,CTTGTATC,-0.0435
15,GCCGGACC,0.0998
16,GATGTCCA,-0.136
17,TGAGTGAA,-0.286
18,ATCCCTTG,-0.0101
19,GTAGGGCA,-0.0115
20,GAGATACC,0.0436
21,CAAGGAAG,-0.269
22,AAATCGTG,0.0433
